In the RNAGym collection of RNA variant scans (doi:10.1093/nar/gkz1192):
Read counts are not given, so values of variants with three or more changes are uncertain.

B1: CPEB3 Ribozyme (parent)
chain: UAACAGGGGGCCACAGCAGAAGCGUUCACGUCGCAGCCCCUGUCAGAUUCUGGUGAAUCUGCGAAUUCUGCUGUAUAUCUC

Variants of: B1
Experiment: self-cleavage, relative activity (ratio to wild type); higher = more cleavage; in vitro, sequencing
In short: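 Relative activity compares each variant's cleaved/total read fraction with that of the unmutated ribozyme. To get these fractions, barcoded CPEB3 ribozyme libraries from rounds of error-prone PCR were transcribed with T7 RNA polymerase for 5 hours at 37°C and then given 15 min of DNase I treatment before EDTA was added. The RNAs were reverse transcribed with template switching and sequenced on Illumina, and DNA sequencing linked barcodes to variants. A minimum of 5 reads applied, and three batches were averaged.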

| Variant | self-cleavage |
| --- | --- |
| A45U U51C U76C | 0.31 |
| U48C A64G U74G | 0.5 |
| A47G A56U A64G U80C | 0.25 |
| U48A U54C U78C C79U | 0.45 |
| A47G U49C U69A | 0.22 |
| U48C U60A U80C | 0.21 |
| A47G A56G U72C | 1.03 |
| A45G U54G A64U U69A | 0.34 |
| A45G U69C C81U | 0.39 |
| U48A U49C U72A | 0.17 |
| A45U A57G U72A | 0.19 |
| A47G A56G U69C | 0.46 |
| A47G C79A U80C | 1.25 |
| A47U U51A U69A | 0.13 |
| A45U C71G U72A | 0.13 |
| A47U U49A A75G | 0.53 |
| U48C A57U U72G | 0.47 |
| A47G U67A U69C | 0.29 |
| A47U U48A U72C | 0.35 |
| U48A U51C U72C | 0.21 |
| A45U U58A U69A | 0.07 |
| A45U U60C U67C | 0.11 |
| A45U A64G U67C A75G | 0.66 |
| A45U U49A A64G | 0.15 |

| Variant | self-cleavage |
| --- | --- |
| A45U G46A G52U | 0.1 |
| A45U A56G A57C A64U U76C | 0.13 |
| A47G A64U A75G | 0.29 |
| A45G U54A A56U U66C | 0.11 |
| A45U A56G U58C U72C | 0.21 |
| U48A A56U U66C | 0.33 |
| A45U U48C C59A U78C | 0.06 |
| U48C U60C U67C U80A | 0.13 |
| A45U G63A U69A | 0.14 |
| G46C A57G A75U U78C | 0.07 |
| A47U U49C U72G U78C | 0.12 |
| A47G U48C A75U | 0.27 |
| U48C A56C U69C | 0.16 |
| A45G U67C U80C | 0.39 |
| A47G U66A U80A | 0.34 |
| A47G A56G U60C U80A | 0.54 |
| A45U A47G U60A A77G | 1.01 |
| A45U A77C U80C | 0.35 |
| U48C U60C U69C | 0.17 |
| U48C A56U C59A | 0.18 |
| A47C G55A U72C | 0.16 |
| U48A U66C U80C | 0.15 |
| A47G C68U U78C | 1.03 |
| A45U U66C A75G | 0.15 |

| Variant | self-cleavage |
| --- | --- |
| A45U U54A A64G U67C U80C | 0.23 |
| U48C A57G G63A | 0.96 |
| A45U U58C C59G U78C | 0.14 |
| A47U G52A U69A | 0.15 |
| A47G C50A U58C A64C C81U | 0.16 |
| U48C U58C U80A | 0.17 |
| A47U U51C A57G U69C | 0.14 |
| A47G A57G A64G U78C | 0.37 |
| U48C U54C U58C | 0.09 |
| A45G U60C U69C | 0.64 |
| A47G U60G U72C | 0.24 |
| A45G U51C A56G U67C | 0.14 |
| A47G A57U U66C C81A | 0.2 |
| U48C U51A U60C A64U U72C | 0.35 |
| U48C U54A U78C | 0.59 |
| U48C U51A U54A A56G A57C | 0.4 |
| A45G U51C A57G A64U | 0.05 |
| G46U A64U U80A | 0.41 |
| A45U G63A U66A | 0.3 |
| A47G U48A U78A | 0.41 |
| A47U A57G U80C | 0.19 |
| A45G U51G U72C U74C | 0.96 |
| U48C U69G U72A | 0.16 |
| U48C C68A U72A | 0.19 |

| Variant | self-cleavage |
| --- | --- |
| U48C A64G U69G | 0.22 |
| A45U A57G G63A A64G | 0.41 |
| A47G U60A U67C U78C | 0.32 |
| A47G U51C A65G U69C U76C | 0.38 |
| U48C U66A U69C U72C U78C | 0.18 |
| A47G U49C U67A | 0.1 |
| A47G A57G A64G U76C | 0.49 |
| A47U A56G G63A A64U U66C A77G U78A | 0.09 |
| A45G U54C A65U | 0.39 |
| U48C U49G A56G | 0.37 |
| A45G U66C A75G | 0.08 |
| A47G A56U A64G U78C | 0.21 |
| G46A A47G U54C A64U | 0.21 |
| A45G U54A A64G U69C | 0.35 |
| A47U U51C U60C U67C | 0.1 |
| A45G U60C A64U A65G U69C | 0.09 |
| A45U G52A C62A | 0.59 |
| G46A A56U A75G | 0.01 |
| A45U U48C U54C | 0.16 |
| A45G U66C U80A | 0.35 |
| A45U G53A U67A U72A | 0.23 |
| A47G U58C A75G | 1.03 |
| A47G C68G G73A | 0.92 |
| U48C A65G U72G | 0.26 |

| Variant | self-cleavage |
| --- | --- |
| U48C A64G U69C U72C | 0.16 |
| U48C A77G U78A | 1.07 |
| G46A A57G A75U U78C | 0.13 |
| G46U U66A A77G | 0.11 |
| A45G U76C U78G | 0.72 |
| A47G U49A U51A | 0.16 |
| A45G U58A U72A | 0.28 |
| A45G U51A G63A | 0.77 |
| U48C U72A U74C | 0.5 |
| A47G A56U U76C A77U | 0.36 |
| U48A G70C U76A | 0.1 |
| A47G U72A U78C | 0.28 |
| G46C U49A U60A U76A | 0.14 |
| U48C U60A U72A | 0.21 |
| A47G U51C C62U U72C | 0.12 |
| U48C G53A U72A | 0.4 |
| A47U C62U U69C U72G | 0.08 |
| U48C U54A A64G A65U | 0.29 |
| A47G U51A A56G U60A | 0.26 |
| A45G U54C U60C U69A | 0.55 |
| A45G U54C U58C U67C | 0.1 |
| A47U C62U U69C | 0.25 |
| A47G U51C A64G A65U U67C U76A | 0.22 |
| A45U U69C U72C | 0.23 |

| Variant | self-cleavage |
| --- | --- |
| A47G U51C G52U | 1.18 |
| A47G A56G G63A C79A U80C | 1.07 |
| U48C A77U U80C | 0.78 |
| A45U U51C U72C | 0.53 |
| A45U G73A U78C | 1.24 |
| U48C U69C U74C | 0.22 |
| A45U U51C U80C | 0.52 |
| A45U U51G U58C | 0.16 |
| U48A U58C C62U U72C | 0.07 |
| U48C U60A A65U U67C | 0.11 |
| A45U U51A G52A C62A | 0.38 |
| A47U A77G U78C | 0.26 |
| A45U C50A G52A | 0.28 |
| A45U U49C U54A | 0.04 |
| U48C A56G U58C A77G | 0.07 |
| A45U U48G U51A | 0.11 |
| U48C U67C G73U | 0.28 |
| A47U U54C A65G | 0.08 |
| U48C A57G U67A | 0.35 |
| A45U U51A U54C A56G A65G U78C | 0.07 |
| A47G U67C C71G | 0.45 |
| U48C A57G C79U | 1.25 |
| U48G A57G A75U U80C | 0.65 |
| U48C A56U U69C | 0.2 |

| Variant | self-cleavage |
| --- | --- |
| A45U U60A A64U U76A | 0.3 |
| A45U U60A U80C | 1.13 |
| U48C U72G U74A | 0.53 |
| A45U U54C G55U | 0.15 |
| A47U U49C A64G | 0.11 |
| A47G U60C U72G | 0.37 |
| U48C U49C U60C U66C | 0.15 |
| U48C U69C U76C | 0.45 |
| A45G U69A A75G | 0.27 |
| U48C A57G U69C | 0.76 |
| A47G U54C A77G | 1.01 |
| A45G U58C U67C U80C | 0.3 |
| A47U C62U U66C C68U | 0.07 |
| A45G U60C A64G | 0.99 |
| U48C A64G A77U | 0.38 |
| A47G G63A A64G A65U U72A | 0.32 |
| A47G U60C A64U U66C | 0.11 |
| A45U A65U U72C U78C | 0.42 |
| A45G U74C U80A | 1.21 |
| A45U U67A U80A | 0.29 |
| U48C U51C A64C U72C A75U | 0.27 |
| A47G G52U U72A | 0.99 |
| A45G U74C A75G | 0.83 |
